# Source: PubChem BioAssay AID651568 (National Center for Advancing Translational Sciences (NCATS), 2012)
# Among all 1,200 compounds or so, about 55 (5%) were called active. Inconclusive results (about 15%) are left out. The call rests on the fitted dose curve; in most records, active means well fitted inhibition curve with a large enough effect; inconclusive means small, poorly fitted or top-dose-only effect; inactive means no such curve, though single readings can be large or run the other way. This is one part of the list.
# Assay: qHTS Assay to Find Inhibitors of Chronic Active B-Cell Receptor Signaling: Hit Validation in Renilla Reporter Assay; further: nearly all actives have a fitted effect of over 70% in size
# Settings: TMD8 IkB-Renilla luciferase reporter, NF-kB signaling; series mostly up to 57.5 µM; activity change, negative = inhibition: at the top concentration
# How it was run: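 Orthogonal secondary test of primary-screen hits in ABC-DLBCL cells carrying constitutively expressed IkB-Photinus and Renilla luciferase reporters, read by Dual-Glo luminescence; luciferases differ from the primary assay's click beetle enzymes, to exclude assay-specific artifacts.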
# On the % scale 0 is the no-effect control and ±100 the full control effect; potency means the concentration at half of the fitted maximal effect.
Structure (SMILES),"activity change, negative = inhibition",Potency
COc1ccc(/C=N/NC(=O)c2[nH]c3ccc(Br)cc3c2-c2ccccc2)c(C(=O)O)c1OC,inactive: -2.12%,–
CCOC(=O)c1ccccc1NS(=O)(=O)c1ccc(OCC)cc1,inactive: 22.1%,–
CCCN1C(=O)C(=O)c2cc(Cl)ccc21,inactive: 0.504%,–
CCN(c1ccccc1)S(=O)(=O)c1ccc(C(=O)NC2CCN(Cc3ccccc3)CC2)cc1,inactive: -5.33%,–
CC1=CC(C)(C)N(S(=O)(=O)c2ccc(C)cc2)c2cc(C)ccc21,inactive: -7.09%,–
COc1cc2c(c(OC)c1OC)-c1ccc(OC)c(=O)cc1[C@@H](NC(C)=O)CC2,inactive: -10.9%,–
O=[N+]([O-])c1cc(O)c2ncccc2c1,inactive: -17.5%,–
O=C(Nc1ccc([N+](=O)[O-])cc1)Nc1ccon1,inactive: -10.3%,–
CC(C)(C)NC(=S)N/N=C/c1cccnc1,inactive: 1.99%,–
COc1cc(C(c2sc3nc(C)nn3c2O)N2CCN(c3ccccc3)CC2)cc(OC)c1OC (stereo unspecified),inactive: 10.5%,–
COc1cc(C(=O)Nc2ccc(C)cc2)c2ccccc2n1,inactive: -11.4%,–
COc1cc(C(=O)N/N=C(\C)c2ccc3c(c2)OCO3)cc(OC)c1OC,inactive: 1.79%,–
O=C(COc1ccccc1-c1ccccc1)NN=C1CCCC1,inactive: 4.23%,–
CSc1nc(N(C)NC(=O)c2ccc(Cl)cc2)c2ccccc2n1,inactive: -26.1%,–
Cc1ccccc1NC(=S)c1ccc2ccccc2n1,inactive: 15.7%,–
CCOc1ccc(N(CC(=O)Nc2ccccc2OC)S(=O)(=O)c2ccccc2)cc1,inactive: 1.08%,–
COc1ccc(NS(=O)(=O)c2cc(NC(=O)CNC(=O)c3cccc(OC)c3)ccc2C)cc1,inactive: 16.9%,–
CCOc1ccc(C(=O)c2cc([N+](=O)[O-])ccc2N2CCOCC2)cc1,inactive: -15.7%,–
Nc1ccc(C(=O)n2c3ccccc3c3ccccc32)cc1,inactive: -2.47%,–
COc1ccc(S(=O)(=O)Nc2cc3c(C(C)=O)c(C)oc3c3ccccc23)cc1,inactive: 24.7%,–
COc1ccc(-c2c/c(=N\c3nc(-c4ccccc4)c(C)s3)c3ccccc3o2)cc1O,inactive: -3.81%,–
COc1ccc(C)cc1NS(=O)(=O)c1ccc(-c2cnc(C3CC3)o2)cc1,inactive: 22.8%,–

Structure (SMILES),"activity change, negative = inhibition",Potency
COc1ccc(OC)c(C(=O)COC(=O)c2[nH]c(C)c(C(C)=O)c2C)c1,inactive: 7.49%,–
Cc1ccc2[nH]c(C(=O)NN=C3CCCCC3)c(-c3ccccc3)c2c1,inactive: -4.31%,–
COc1ccc(/C=N/NC(=O)c2[nH]c3ccc(Br)cc3c2-c2ccccc2)cc1,inactive: -15%,–
Cc1cnn(CCC(=O)NNC(=S)NCC(C)C)c1,inactive: 1.59%,–
CCCn1nc(Oc2nc(N(C)C)nc(N(C)C)n2)ccc1=O,inactive: -0.0736%,–
CCOCCOC(=O)c1[nH]c2c(c1C)C(=O)CC(c1cccs1)C2 (stereo unspecified),inactive: -13%,–
CC1CCCN(c2ccc([N+](=O)[O-])cc2C(=O)c2ccccc2)C1 (stereo unspecified),inactive: 1.52%,–
COc1ccccc1CNC(=O)CSc1ccc(C)cc1,inactive: 3.24%,–
COc1ccc(C(=O)n2c(-c3ccco3)nc3ccccc32)cc1,inactive: 3.66%,–
COc1cc(OC)c2c(-c3cccc(-c4ccc(O)cc4)c3)cc(=O)oc2c1,inactive: -22.9%,–
Cn1c(=O)n(Cc2ccccc2Br)c2ccccc21,inactive: 2.1%,–
CCN(c1ccccc1)S(=O)(=O)c1ccc(C(=O)NNC(=O)c2ccccc2F)cc1,inactive: 1.63%,–
CN(C)c1ccc(-c2nn3c(-c4ccccc4Cl)nnc3s2)cc1,inactive: 5.16%,–
CC(=O)c1ccsc1-c1c(C)cc2oc(=O)cc(-c3ccccc3)c2c1C,inactive: -0.446%,–
COC(=O)c1[nH]c2c(c1C)C(=O)CC(c1ccccc1)C2 (stereo unspecified),inactive: -2.41%,–
Cc1noc(C)c1COc1ccc(C(=O)NCc2cccs2)cc1,inactive: 4.11%,–
COc1ccc(/C=C/C(=O)c2cc(F)ccc2OC(=O)c2ccc(OC)c(OC)c2)cc1OC,–,active: 7.57 µM
CCCNS(=O)(=O)c1cccc(C(=O)OCc2cc(=O)oc3cc(OC)ccc23)c1,inactive: 32.7%,–
Cc1ccc(NC(=O)c2ccco2)c([N+](=O)[O-])c1,inactive: 0.0881%,–
CCN(CC)c1ccc(/C=N/N=C(N)N)c(O)c1,inactive: -24%,–
C#CCOCCOCCOCCNc1nc(N2CCN(C(=O)[C@H](C(C)C)n3cc(CCO)nn3)CC2)nc(N2CCN(C(=O)[C@H]([C@@H](C)CC)n3cc(CCCN=C(N)N)nn3)CC2)n1,inactive: -4.11%,–
Cc1cc(C)n(-c2nc3ccccc3c(=O)n2OCC#N)n1,–,active: 16.9 µM

Structure (SMILES),"activity change, negative = inhibition",Potency
FC(F)(F)c1nnc2ccc(Cl)nn12,inactive: 4.86%,–
COCCNC(=S)N/N=C(\C)c1ccc2cc(OC)ccc2c1,inactive: -9.27%,–
Cc1csc(NC(=S)Nc2cccc(Cl)c2)n1,inactive: -22.3%,–
CC[C@]1(O)C[C@@H]2CN(CCc3c([nH]c4ccccc34)[C@@](C(=O)OC)(c3cc4c(cc3OC)N(C)[C@H]3[C@@](O)(C(=O)OC)[C@H](OC(C)=O)[C@]5(CC)C=CCN6CC[C@]43[C@@H]65)C2)C1,inactive: -22.6%,–
CCOC(=O)Nc1ccc2nc(N3CCCCCC3)sc2c1,inactive: 6.68%,–
CCCCC[C@H](O)/C=C/[C@@H]1[C@@H](CCCCCCC(=O)O)[C@@H](O)C[C@H]1O,inactive: -7.05%,–
S=c1[nH]cnc2sc(-c3ccccc3)cc12,inactive: 6.87%,–
COc1ccc(C2CC(=O)Nc3cc(OC)c(OC)cc32)cc1Br (stereo unspecified),inactive: 3.32%,–
COc1ccc(S(N)(=O)=O)cc1C(=O)OCCCOC(=O)c1cc(S(N)(=O)=O)ccc1OC,inactive: 2.04%,–
COc1ccc(-c2ccc(CCC(=O)O)n2-c2ccccc2OC)cc1,inactive: -1.5%,–
COc1ccc(/C=N\NC(=O)c2ccccc2F)cc1COc1ccc(F)cc1F,inactive: -2%,–
Cc1cc(NC2CCCCC2)nc2ccccc12,inactive: 2.17%,–
CCOc1ccc(Nc2cc(C)nc(-n3nc(C)cc3C)n2)cc1,inactive: -24.1%,–
CCOc1ccccc1C1C2=C(COC2=O)Nc2cc3c(cc21)OCO3 (stereo unspecified),inactive: -23.1%,–
Cc1c(CCC(=O)NCCCC(=O)O)c(=O)oc2cc3oc4c(c3cc12)CCCC4,inactive: 0.969%,–
CC1CCC2C(=O)N(c3ccc(C(=O)Oc4cccc5cccnc45)cc3)C(=O)C2C1 (stereo unspecified),inactive: 6.04%,–
Cc1ccccc1OCCc1c(C)[nH]c(=S)[nH]c1=O,inactive: -6.58%,–
N#Cc1cccc2c1-c1ccccc1/C2=N/NC(N)=S,inactive: -22.6%,–
CN1CCN(C(=S)NC(=O)c2ccc(-c3ccccc3)cc2)CC1,inactive: -28.4%,–
COc1ccc(C)cc1Nc1cc(C)nc2ncnn12,inactive: 0.723%,–
Cc1csc(NC(=S)NC(=O)c2ccccc2)n1,inactive: 7.99%,–
CCOC(=O)c1[nH]c(C)c(C(=O)c2cc(F)ccc2F)c1C,inactive: -10.3%,–

Structure (SMILES),"activity change, negative = inhibition",Potency
O=C(CCl)Nc1cc(S(=O)(=O)N2CCCCCC2)ccc1Cl,inactive: -87.8%,–
Oc1cccc(Nc2nc(N3CCOCC3)nc(N3CCOCC3)n2)c1,inactive: -26.5%,–
NC(=S)N/N=C/c1ccccc1OC(=O)/C=C/c1ccccc1,inactive: -12.7%,–
O=C(c1cc([N+](=O)[O-])ccc1N1CCOCC1)N1CCN(c2ccccc2)CC1,inactive: 0.66%,–
Cc1ccc(Cl)cc1NC(=S)N/N=C/c1cccc2ccccc12,inactive: 31.9%,–
Cc1cc2c(cc(C(=O)OCC(=O)NCc3cccs3)n2C(C)C)o1,inactive: -16.9%,–
COC(=O)c1cc(C#N)c(N(C)Cc2ccccc2)nc1C,inactive: 1.83%,–
O=C(N/N=C/c1ccc(O)cc1)c1[nH]c2ccc(Br)cc2c1-c1ccccc1,inactive: 17.4%,–
CCCCCOC(=O)c1[nH]c2c(c1C)C(=O)CC(c1ccco1)C2 (stereo unspecified),inactive: -11.5%,–
NNC(=O)/C(=C\c1ccco1)NC(=O)c1ccco1,inactive: 4.87%,–
Cc1ccc2[nH]c(-c3ccccc3)cc(=O)c2c1,inactive: -4.01%,–
COc1ccccc1CNC(=O)CSc1ccc(Br)cc1,inactive: 0.124%,–
Cc1nn(CCC(=O)NNC(=S)Nc2ccccc2)c(C)c1Br,inactive: 9.79%,–
Cc1c(C(=O)OCC(C)C)[nH]c2c1C(=O)CC(c1cccs1)C2 (stereo unspecified),inactive: 16.2%,–
C=CCNc1ncnc2c1ncn2C1OC(CO)C(O)C1O (stereo unspecified),inactive: -8.32%,–
C[C@H](Cc1ccccc1)Nc1ncnc2c1ncn2[C@@H]1O[C@H](CO)[C@@H](O)[C@H]1O,inactive: -12.9%,–
COc1cc(-c2c(-c3cc(OC)c(OC)c(OC)c3)noc2C)ccc1F,inactive: -25%,–
Cc1cccc(-n2c3nc(=O)[nH]c(=O)c-3cc3cc([N+](=O)[O-])ccc32)c1,–,active: 26.9 µM
O=C(NC(=S)N1CCOCC1)c1cn(-c2ccccc2)nc1-c1ccccc1,inactive: -1.67%,–
COc1ccc(-c2csc(C3=C(O)CN(CCCN4CCCC4=O)C3=N)n2)cc1OC,inactive: -14.8%,–
COc1cc(OC)cc(C(=O)NCc2ccc3c(c2)CCN3C(=O)c2ccccc2)c1,inactive: 2.99%,–
O=C(CSc1cccc[n+]1[O-])c1ccc(Cl)s1,inactive: -9.8%,–

Structure (SMILES),"activity change, negative = inhibition",Potency
O=C(/C=C/c1ccco1)NC(=S)Nc1cccc(-c2nc3ccccc3o2)c1,inactive: 9.24%,–
COc1ccc(NC(=S)N/N=C/c2ccc(F)c(F)c2)cc1,inactive: 0.264%,–
Cc1ccc(NC(=S)NNC(=S)Nc2ccc(C)cc2C)cc1,inactive: 5.73%,–
CCOc1ccccc1N=NC1C(=O)N(C(N)=S)N=C1C (stereo unspecified),inactive: -19.6%,–
COc1cc2nc(=S)n3[nH]c(COc4ccccc4C)nc3c2cc1OC,inactive: -24.3%,–
CCOC(=O)c1[nH]c(C)c(C(=O)Nc2cc(Cl)ccc2C)c1C,inactive: 1.81%,–
CCCc1noc2c1C(c1ccoc1)C(C#N)=C(N)N2 (stereo unspecified),–,active: 23.9 µM
Cc1cccc(C)c1OCC(=O)N/N=C/C=C/c1ccco1,inactive: -3.11%,–
COc1cccc2sc(Nc3nnc(-c4ccccc4Cl)o3)nc12,inactive: 19.2%,–
CCCCNC(=S)NNC(=O)CCn1nc(C)c(Br)c1C,inactive: 5.36%,–
COc1ccccc1C1=NOC(COc2ccc3c(C)cc(=O)oc3c2)C1 (stereo unspecified),inactive: -19.8%,–
COc1ccc(S(=O)(=O)N2CCOCC2)cc1NC(=O)/C=C/c1ccc(F)cc1,inactive: 2.91%,–
O=C(NC(=S)NC1CCSC1=O)c1cccs1 (stereo unspecified),inactive: 2.61%,–
CCO[C@H]1OC(C(=O)NCc2nc3ccccc3[nH]2)=C[C@@H](C2CC2)[C@@H]1CCCO,inactive: -7.78%,–
O=C(Nc1ncc(Cc2ccc(SC(F)F)cc2)s1)c1ccc(OC(F)F)cc1,inactive: -27.7%,–
COc1ccc(CN(C)C(=O)Cn2cnc3c(NCc4ccccc4)ncnc32)cc1OC,inactive: -17.5%,–
NC(=S)N=Nc1c(O)n(Cc2ccc(F)cc2)c2ccccc12,inactive: -6.07%,–
COc1ccc(-c2nnc(SCC(=O)NCc3ccccc3)nc2-c2ccc(OC)c(OC)c2)cc1OC,inactive: 2.39%,–
